First the molecules themselves.
T1: UNK ZnF1-6 (called full-length) (human, UniProt Q9C0B0 30-357)
T1 sequence: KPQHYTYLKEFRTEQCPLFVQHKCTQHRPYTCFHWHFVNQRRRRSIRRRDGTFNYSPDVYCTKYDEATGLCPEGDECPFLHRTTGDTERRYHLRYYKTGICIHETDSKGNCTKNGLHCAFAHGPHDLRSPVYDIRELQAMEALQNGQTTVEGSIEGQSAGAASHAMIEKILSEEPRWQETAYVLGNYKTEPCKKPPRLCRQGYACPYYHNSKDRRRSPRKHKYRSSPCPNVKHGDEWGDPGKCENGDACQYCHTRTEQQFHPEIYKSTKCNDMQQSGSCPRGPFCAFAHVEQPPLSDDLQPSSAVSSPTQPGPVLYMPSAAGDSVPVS

B1: chr15:75505753:75505856:-|CDS|ENSG00000169410|unk|FALSE|unique (ssRNA)
RNA: GGGAGUUCUACAGUCCGACGAUCGGUGAACGGCCACCCAGAUCCCUUCGAUGAGAUCAUCCUGUUCUCCCUCCCUCCUGCCUUAGACUGGGACUCAGUACAUGUUCCAGGUCCCCAUGCUAUGACCAUCCAAGAGUUGGUGGACAACAGAGGAUUGAGCAUCA
B2: chr3:73066602:73066703:+|3pUTR|ENSG00000163605|unk|total|mutant (ssRNA)
RNA: GGGAGUUCUACAGUCCGACGAUCACUAUUUUGCCGAAUGAAUGUUUAUGAAGCUGAUAUGAGACCAUCUCAGAAGAACCAAGCCGGUUCCUUGACCUUUUGCUUGCUUUUCUGAACAUUGUGAAUAUUACACAUGUCUUUCUACAACAGAGGAUUGAGCAUCA
B3: chr10:103289619:103289731:+|3pUTR|ENSG00000148798|unk|total|mutant (ssRNA)
RNA: GGGAGUUCUACAGUCCGACGAUCAUGAGUGGAAAAAGCCAAGGUGUCAUUUAUGUGUCAGUUCAUUUGUGGUGAUACCGAAUCCGCUUUUUCAUCCCCUUACCCUCCGAAUCCACGUAUUCCCCUUCCCACCCGCCCCGGUCACAACAGAGGAUUGAGCAUCA
B4: ENSG00000106305:stop:overlap|stop_codon|ENSG00000106305|stop_codon|NA|stop_codon (ssRNA)
RNA: GGGAGUUCUACAGUCCGACGAUCACGUGCACGGCAGGAGCUACGGCCCAGCGCCGGGCGCUGGCCACGUGCAGCCUCUCCAGUAGCUGGGAUUACAGGUGCCCCCCACCAAGCCCAGCUAAUUUUUGUGUUUCAGUAGAAAUGCAACAGAGGAUUGAGCAUCA
B5: chr8:144876950:144881514:-|three_prime_utr|ENSG00000196150|control|control|control (ssRNA)
RNA: GGGAGUUCUACAGUCCGACGAUCGAAACUGCAUGUGGAACCACAAGCAGCCUUCAGCCCAAGAGAAGUCUCUGUUAACUCUAUAGGAAGCUUUUCUUUGGCGAUUCAGUGUCACAAAAUAACUCCAGAAAGAAGCACUUAGCGCAACAGAGGAUUGAGCAUCA
B6: ENSG00000105438:stop:overlap|stop_codon|ENSG00000105438|stop_codon|NA|stop_codon (ssRNA)
RNA: GGGAGUUCUACAGUCCGACGAUCAUUUCUUCUACCUCUAUAUCACCAAAGUCCUAAAGGGGAAGAAGUUGAGUUUGCCGGCAUAGCCCCGGUCCUCUCCAUCUCUCUCCUCGGCAGCAGCGGGAGGCAGAGGAAGGCGGCAGACAACAGAGGAUUGAGCAUCA
B7: chr12:55956948:55957671:-|CDS|ENSG00000185664|control|control|control (ssRNA)
RNA: GGGAGUUCUACAGUCCGACGAUCGUGCUUUCUGGAACCACAGCUGCACAGGUAACAACUACAGAGUGGGUGGAGACCACAGCUAGAGAGCUACCUAUCCCUGAGCCUGAAGGUCCAGAUGCCAGCUCAAUCAUGUCUACGGAACAACAGAGGAUUGAGCAUCA
B8: chr1:162599429:162599460:+|3pUTR|ENSG00000117143|msi1_unk|total|mutant (ssRNA)
RNA: GGGAGUUCUACAGUCCGACGAUCGGUAUUUGAACCAGAUACCAAGUUUUGUUUGCCACGACCGGAACCGCUUUUAUUUUUGACCGACCAACUGUGAACCUACAAGACGUCUUGGACAACUGAAGUUUAAAUAUCCACAGGGUUCAACAGAGGAUUGAGCAUCA
B9: ENSG00000165916:stop:overlap|stop_codon|ENSG00000165916|stop_codon|NA|stop_codon (ssRNA)
RNA: GGGAGUUCUACAGUCCGACGAUCACAUGGAAGGCAUCCUGGAGGUGCAGGCCAAGAAGAAAGCCAACCUACAAUACUACGCCUAGGGCACACAGGCCAGCCCCAGUCUCACGGCUGAAGUGCGCAAUAAAAGAUGGUUUAGGGCAACAGAGGAUUGAGCAUCA
B10: ENSG00000070961:be:win_2851|CDS|ENSG00000070961|bound_else_gene|NA|bound_elsewhere_windowed (ssRNA)
RNA: GGGAGUUCUACAGUCCGACGAUCGAAAAGUUUUUUGACAUUGAUAGUGGAAGAAAUGCUCCUUUGCAUGCUCCUCCUUCAGAACAUUAUACUAUUGUUUUUAAUACCUUUGUGCUGAUGCAACUUUUCAACGAAAUAAAUGCCCAACAGAGGAUUGAGCAUCA
B11: chr13:77097425:77097526:-|CDS|ENSG00000005810|msi1|FALSE|unique (ssRNA)
RNA: GGGAGUUCUACAGUCCGACGAUCAGAAAAGGCAGAAGUUAGGCCCAGGGGUAAUUUGUUUGGAGAGAUGGCCCAGCUGGCAGUAGGAGGACCAGAGAAAGAUACCAUCUGUGAACUGUGUGGGGAGUCACAUCCAUACCCGGUCAACAGAGGAUUGAGCAUCA
B12: chr13:20975083:20975184:-|CDS|ENSG00000150457|msi1|total|mutant (ssRNA)
RNA: GGGAGUUCUACAGUCCGACGAUCGCCAGCCCCCUACGUUCCCACCAUCAGCCACCCCAUGGACACCUCGAAUUUCGACCCCGCCGAUGAAGAAAGCCCUUGGAACGAUGCCAGCGAAGGCCGCACCAAGGCCUGGGACACACUCAACAGAGGAUUGAGCAUCA
B13: ENSG00000107863:be:win_2601|CDS|ENSG00000107863|bound_else_gene|NA|bound_elsewhere_windowed (ssRNA)
RNA: GGGAGUUCUACAGUCCGACGAUCCCUGGAUGCUCAGCCCAACUCAAAGACAGAAAGAUCAAAAUCAUAUGAUGAGGGUCUGGAUGAUUACAGAGAAGAUGCAAAAUUGUCCUUUAAGCACGUAUCUAGUCUGAAGGGAAUCAACAACAGAGGAUUGAGCAUCA
B14: chr8:17644361:17644462:-|3pUTR|ENSG00000129422|msi1|total|mutant (ssRNA)
RNA: GGGAGUUCUACAGUCCGACGAUCCAACAUUGUGAUGUCAGUAUUUACUAAUCUACAUUCAGUGGCUGUACAAAUAACAGCUGCCGUAAGAAGAGAUUCAGGAUGCCCGAGGUGAAUAUUUGGGUCAUUUACAUGUACACUACACAACAGAGGAUUGAGCAUCA
B15: chr1:37566712:37566813:+|3pUTR|ENSG00000163879|unk|FALSE|unique (ssRNA)
RNA: GGGAGUUCUACAGUCCGACGAUCGCUUUAUUUCCCUAGCACUGGUGAAGGGCUUCAACUGUCAAACCUCAGAACAAAUGCAUUAGGGCCUUAGAAAUGUCAAUGGGGCAGGAAGAAAACACAAUUUCUAACUGCCUGUUUUUGCAACAGAGGAUUGAGCAUCA
B16: chr7:101206146:101206247:-|3pUTR|ENSG00000106397|msi1|total|mutant (ssRNA)
RNA: GGGAGUUCUACAGUCCGACGAUCCUUUGUCGACCCCUGACACUCAACCACUCUGCCAAACCUGCCCUGCCAUUGUGCCUUUUCCGGGGGCCUGGCCCCCGUCCUGGGAGUUGGGGGAUGGGUCUCUCUGUCUCCCCACUUCCUCAACAGAGGAUUGAGCAUCA
B17: chr14:100883974:100884119:-|CDS|ENSG00000254656|unk|FALSE|unique (ssRNA)
RNA: GGGAGUUCUACAGUCCGACGAUCGUUCUAUAACGACCGUCUGAGAGUUGGCUAUGUCAUCAAUCACCUGUCCGGCUUGGCAUUAGAAUGGGCCAAAGCUCUACUGCAGGAAAACAGCCCCCUGAUCGGAGACUUCCCAGCCUUCAACAGAGGAUUGAGCAUCA
B18: ENSG00000151025:stop:overlap|stop_codon|ENSG00000151025|stop_codon|NA|stop_codon (ssRNA)
RNA: GGGAGUUCUACAGUCCGACGAUCUAAGUGCAAAUAAGAUAGCAGGGCCUAGGAAAGAAGAGAUCUGGGAUAGUUUUAAAGUGUAGCAUCUCCAGGAAGAAGAGGAAAAGGAGGGAACCCCGGAUUGGAUAUGAGACAGAAGAUCAACAGAGGAUUGAGCAUCA
B19: chr11:56417260:56418232:-|CDS|ENSG00000279961|control|control|control (ssRNA)
RNA: GGGAGUUCUACAGUCCGACGAUCGACAAGAUGGCUUCUGUAUUUUACACAGUGGUGAUCCCCAUGUUAAACCCCCUAAUCUAUAGUCUAAGGAACAAAGAAGUGAAAGAUGCCUCAAAGAAAGCCUUGGAUAAAGGUUGUGAACAACAGAGGAUUGAGCAUCA
B20: ENSG00000136451:be:win_601|CDS|ENSG00000136451|bound_else_gene|NA|bound_elsewhere_windowed (ssRNA)
RNA: GGGAGUUCUACAGUCCGACGAUCCCCUUUGAGUGUCCUAUUUGUAAUCAGCGCUUCAAGAGGAAGGACCGGAUGACUUACCAUGUGAGGUCUCAUGAAGGAGGCAUCACCAAACCCUAUACUUGCAGUGUUUGUGGGAAAGGCCAACAGAGGAUUGAGCAUCA
B21: ENSG00000107863:be:win_1651|CDS|ENSG00000107863|bound_else_gene|NA|bound_elsewhere_windowed (ssRNA)
RNA: GGGAGUUCUACAGUCCGACGAUCAAAUCUUUUCGAGGUUCCAAUUUUACUGUGGCUCCAAGCGUUGUUAAUUCUGAUAACAGGCGAAUGAGUGGUAGAGGAGUGGGAUCUGUGUCGCAGUUUAAAAAAAUUCCACCAGAUCUACAACAGAGGAUUGAGCAUCA
B22: chr10:27397735:27399240:-|CDS|ENSG00000182077|control|control|control (ssRNA)
RNA: GGGAGUUCUACAGUCCGACGAUCUCUUCUAGGCUACCCAGUGUUACAAAGUGCAAUUUCAACAAUAAUAGGGGUGUGUGUUUUAGCUGCAGCGAAAGCAUACAUCUUCAGAACAUUUUUUAAGAUUAUGUUUCUUGUUAUGAUCAACAGAGGAUUGAGCAUCA

The record followed here is PMC12136788.

Some of the results follow.

For this assay, the target named is T1, UNK ZnF1-6 (called full-length). The assay can be described thus: nsRBNS (natural sequence RNA bind-n-seq); RBNS binding buffer (assumed for nsRBNS): 25 mM Tris pH 7.5, 150 mM KCl, 3 mM MgCl2, 0.01% Triton X-100, 500 ug/ml BSA, 20 U/ml SUPERase-In, 4 C; UNK is unkempt and MSI1 is Musashi-1; names of the RNAs are library labels; protein concentration not given here; high values mean tight binding.
Regarding B1, the binding signal amounted to 0.863 enrichment R.
For B2 the value was 0.318 enrichment R; for B3, 0.476 enrichment R; for B4, 0.585 enrichment R.
The molecule B5 registered a binding signal of 0.515 enrichment R.
B6 gave a binding signal of 0.79 enrichment R.
Under B7 stands 0.609 enrichment R; under B8, 0.383 enrichment R.
Under B9 stands 0.958 enrichment R; under B10, 0.479 enrichment R.
In the case of B11, the binding signal came to 1.06 enrichment R.
Under B12 stands 0.926 enrichment R.
For B13 the value was 0.436 enrichment R.
Under B14 stands 0.264 enrichment R; under B15, 0.557 enrichment R; under B16, 0.704 enrichment R.
In turn, B17 came in with a binding signal of 0.571 enrichment R.
Under B18 stands 0.709 enrichment R; under B19, 1.01 enrichment R; under B20, 0.519 enrichment R.
The molecule B21 came in with a binding signal of 0.601 enrichment R.
For B22 the value was 0.38 enrichment R.
